From the GPR68 mutational scans of Howard et al. (2025)
Scores with a large standard error are left out. The source holds two more conditions with little spread; they are left out. In variant names, del marks residues removed and ins residues inserted between the two positions. For some assays here: The concentration of ogerin is not given here.

B1: GPR68, Q15743 (parent)
chain: MGNITADNSSMSCTIDHTIHQTLAPVVYVTVLVVGFPANCLSLYFGYLQIKARNELGVYLCNLTVADLFYICSLPFWLQYVLQHDNWSHGDLSCQVCGILLYENIYISVGFLCCISVDRYLAVAHPFRFHQFRTLKAAVGVSVVIWAKELLTSIYFLMHEEVIEDENQHRVCFEHYPIQAWQRAINYYRFLVGFLFPICLLLASYQGILRAVRRSHGTQKSRKDQIQRLVLSTVVIFLACFLPYHVLLLVRSVWEASCDFAKGVFNAYHFSLLLTSFNCVADPVLYCFVSETTHRDLARLRGACLAFLTCSRTGRAREAYPLGAPEASGKSGAQGEEPELLTKLHPAFQTPNSPGSGGFPTGRLA

What was measured:
[1] = variants of: B1; experiment: cAMP reporter score (Enrich2 score, wild type = 0); higher = more signal; HEK293T, FACS bins
[2] = variants of: B1; experiment: surface expression score (Enrich2 score, wild type = 0); higher = more signal; HEK293T, FACS bins

Variant	cAMP reporter score ([1]; pH 5.5)	cAMP reporter score ([1]; pH 6, modulator: ogerin)	cAMP reporter score ([1]; pH 6.5, modulator: ogerin)	cAMP reporter score ([1]; pH 6)	surface expression score [2]
N104V	1.32	1.98	3.39		
N104Y	-0.696	-0.775	-0.512	0.341	-0.684
N104_Y106del	-1.86	-1.63	-0.936	-1.82	-1.96
N104del	-0.418		-0.121	-0.972	-3.31
I105A	-0.397	-0.256	-0.624	1.93	0.583
I105C	0.596	-0.098	-0.823	-0.588	-1.4
I105D	-1.21	-1.52	-1.34	-1.21	-2.51
I105K	-0.735	-0.722	-0.625	-0.059	-0.547
I105L	-0.869	-0.907	-0.324	-0.202	-0.782
I105M	-0.131	-0.462	0.751	0.405	-0.255
I105S	0.043	-1.77			
I105T	-0.505	-0.96	-0.677	-0.275	-1.03
I105V	-0.472	-0.919	-0.969	-0.492	-0.635
I105W	-0.417	-0.473	-0.941	-0.506	-2.07
I105_I107del	-1.75	-1.71	-0.907	-0.527	-3.68
I105_Y106del	-1.64		-0.889	-2.66	
I105_Y106insG	-0.599	-0.466	-0.767	-0.631	-1.68
I105_Y106insGSG	-0.361	-0.67	-0.431	-0.531	-0.289
I105del	-0.482	-1.49	-0.602	0.2	-2
Y106_I107del	0.163	-1.07	-1.52		-3.04
I107_S108insG	-1.94	-2.22	-0.509	-0.831	-2.33
I107_S108insGS	-3.35	-1.71		-0.007	-0.411
I107_S108insGSG	-0.412	-0.683			

Variant	cAMP reporter score ([1]; pH 5.5)	cAMP reporter score ([1]; pH 6, modulator: ogerin)	cAMP reporter score ([1]; pH 6.5, modulator: ogerin)	cAMP reporter score ([1]; pH 6)	surface expression score [2]
I107del	-0.67	-1.25	-1.11	-0.656	-2.41
S108A	0	0.431	2.27	2.37	-1.77
S108C	0.41	0.035	-0.204	0.916	
S108D	-1.85		0.051		
S108E	-1.14	-1.78	-2.1		-1.76
S108F	-1.05	-1.58	-1.1	-0.614	-1.18
S108G	-0.266	-0.561	-1.45	-0.917	-0.867
S108H	0.774	-0.44	0.06	-0.696	2.04
S108I	-0.482		-0.427		
S108K	-0.113	-0.661	-0.33	1.48	0.504
S108L	-2.11	-1.71	-1.28	-0.711	-2.66
S108N	-0.297	-1.14	0.158	-0.058	-0.971
S108Q	-0.486	-1.52			
S108R	-0.412		-0.395	-1.81	
S108T	1.81	1.67	0.578	2.21	
S108V	0.308	0.226	1.15	3.88	-1.65
S108W	-1.82	-0.902	-1.45	-1.14	-2.26
S108Y	-1.27	-1.08	-0.709	-0.319	-1.42
S108_V109insG	-1.2	-0.071		0.036	-1.55
V109_G110insG	-1.01	-1.24	-1.48	-0.787	-1.85
G110_F111del	-1.98	-1.65	-0.772	-1.22	-2.36
G110_F111insGSG	-2.01		-1.28		-2.37
G110_L112del	-1.73		-1.86	-0.802	-3.54

Variant	cAMP reporter score ([1]; pH 5.5)	cAMP reporter score ([1]; pH 6, modulator: ogerin)	cAMP reporter score ([1]; pH 6.5, modulator: ogerin)	cAMP reporter score ([1]; pH 6)	surface expression score [2]
G110del	-1.08	-1.47	-1.78		-2.09
F111C	-1.36	-1.3	-1.59	-0.713	-1.84
F111D	-1.16		-0.888	-1.53	-3.27
F111E	-1.28	-0.852	-0.996		-2.38
F111G	-0.41	-0.646		-0.534	-0.767
F111H	-2.66	-0.707	-0.436	-0.702	
F111I	-0.375	-0.674			-0.806
F111L	-1.32	-1.04	-1.04	-0.006	-1.97
F111M	-1.16	-1.61	-1.15	-1.19	-1.71
F111N	-1.63		-2.03	-1.23	-2.66
F111P	-0.557	-0.789	-0.912		-1.3
F111Q	-1.92	-0.81	-0.791	-0.756	-2.4
F111R	-0.403			-1.32	
F111S	-0.899	-1.42	-1.15	-0.919	-2.15
F111V	-0.48	-1.6	-2.56	-0.793	-3.11
F111W	-0.387	-0.308	-0.579		-2.13
F111_C113del	-1.31	-1.08	-1.51		-2.73
F111_L112del	-2.16	-0.801	-1.11	-2.16	-1.04
F111_L112insGS	-0.429	-1.09	-1.06	-0.91	
F111del	-1.62	-1.49	-1.36	-1.01	-1.84
L112E	-0.653	-2.23	-0.921	-0.249	
L112G	0.326	-2.85	0.096		
L112H	-0.402	-0.637	0.48	1.65	-0.138

Variant	cAMP reporter score ([1]; pH 5.5)	cAMP reporter score ([1]; pH 6, modulator: ogerin)	cAMP reporter score ([1]; pH 6.5, modulator: ogerin)	cAMP reporter score ([1]; pH 6)	surface expression score [2]
L112M	-0.105	0.272	-0.6		0.015
L112N	-0.486		-0.432		
L112P	-0.999	-0.648	-0.41	-0.59	-0.675
L112Q	-0.421				-0.288
L112S	-1.07		-0.43		-3.84
L112T	0.429	-0.654			-0.402
L112Y	-2.44	-1.86	-1.7		-0.047
C113A	-0.909	-0.909	1.13	-0.929	0.159
C113D	-1.73	-0.507	-2.03	-0.094	-3.19
C113E	-1.72	-1.77	-0.998	-0.875	-3.13
C113F	-0.31	-1.14	-1.5	-1.17	-2.28
C113G	-0.061	-0.936	-0.788		-0.556
C113H	-1.72	-1.74	-1.59	-1.51	-2.78
C113I	0.608	-1.69	-0.331	-0.127	-2.04
C113K	-1.23	-1.3	-1.19	-1.44	-2.98
C113L	0.663	0.132	-1.04	-0.368	-1.58
C113M	0.733	0.716	-0.197	1.43	-1.45
C113N	-0.838	-1.2	-1.97	-0.395	-1.14
C113P	-1.59	-1.56	-1.27	-0.557	-2.1
C113Q	-0.009		-0.634	-1.17	-2.01
C113R	-1.78	-1.04			-2.2
C113S	1.67	-4.21	-0.456		
C113T	1.07	-0.415	-0.429		-0.375

Variant	cAMP reporter score ([1]; pH 5.5)	cAMP reporter score ([1]; pH 6, modulator: ogerin)	cAMP reporter score ([1]; pH 6.5, modulator: ogerin)	cAMP reporter score ([1]; pH 6)	surface expression score [2]
C113V	-0.394	0.034	-0.59		-1.01
C113W	-0.7	-1.11	-1.28	-1.58	-1.18
C113Y	-1.23	-1.63	-1.71	-0.283	-1.76
C113_C114del	-1.01	-1.26	-1.32	-0.669	-2.2
C113_C114insG	-2.55	-1.73	-0.921	-0.925	-2.71
C113_C114insGS	-2.26	-0.977	-1.21	-0.958	
C114A	-0.016	-0.394	0.614	0.56	0.123
C114D	-0.584	-1.42	-0.635	-0.578	-1.35
C114E	-0.424			-0.704	
C114F	0.095	-1.34	-0.58	-0.51	-1.36
C114G	-0.172	-0.419	-0.737	0.453	-0.896
C114H	-1.72	-1.17	-0.839		-2.54
C114I	1.62	1.43	-0.426		-0.389
C114K	-0.855		-0.988		-2.54
C114L	-1.57	-1.46	-2.03	-1.19	-2.82
C114M	0.576	0.265	-0.577	0.742	-1.9
C114N	-2.38	-1.76	-0.969	-1.39	-2.35
C114P	-2.29			-1.71	-2.39
C114Q	-0.815	-1.75	-1.08	0.591	-2.15
C114R	-1.16	-1.98	-1.73	-0.529	-2.57
C114S	-0.596	-0.99	-1.29	-1.02	-1.57
C114T	0.827	1.35	0.069		-0.954
C114V	0.554	0.483	0.866	2.12	-0.832

Variant	cAMP reporter score ([1]; pH 5.5)	cAMP reporter score ([1]; pH 6, modulator: ogerin)	cAMP reporter score ([1]; pH 6.5, modulator: ogerin)	cAMP reporter score ([1]; pH 6)	surface expression score [2]
C114W	-0.44	-1.52	-1.26	-0.596	-2.5
C114Y	-0.763	-1.02	-0.797	-0.356	-0.786
C114_I115del	-1.01	-1.43	-0.821	-1.64	-1.71
C114_S116del	-1.93	-1.58	-1.46	-0.906	-1.51
I115A	-0.61	-0.436	-0.697	-0.81	-2.06
I115D	-1.98		-1.12	-2.06	-3.46
I115E	-1.3		-1.08	-0.348	-2.49
I115F	-0.96			-0.589	-0.84
I115G	-0.429		-0.401	0.729	-0.823
I115H	-0.848	-0.246	-1.96	-0.935	-2.82
I115M	-0.422	-0.077	-1.23	0.472	-1.41
I115N	-1.89	-1.58	-1.6	-1.69	-1.87
I115Q	-1.97			-0.683	
I115R	-1.29		-0.612	-0.776	-2.66
I115S	-1.26	-1.06	-1.45	-1.23	-2.28
I115T	-1.41	-1.73	-1.2	-0.7	-3.17
I115V	0.74	-0.414	-0.362		-1.71
I115W	-1.85	-1.33	-1.47	-0.699	-2.82
I115Y	-2.17		-1.54	0.104	-2.67
I115_S116del	-1.24	-0.806	-1.17	-0.832	-2.26
